# Data taken from PMC4336329 (PLoS ONE, 2015).
# Screen size: about 310,000 compounds; about 14,000 (4.5%) showed an effect of 50% or more. The effect is printed as a negative number. This is one part of the list.
# Molecular target: human ether-à-go-go-related gene (hERG) potassium channel (human, UniProt Q12809)
# Assay: primary screen, population patch clamp on CHO cells stably expressing hERG
# 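Further: peak tail current of the secondary pulse compared with the same well before compound.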
# Chain of human ether-à-go-go-related gene (hERG) potassium channel (Q12809 whole entry, looked up): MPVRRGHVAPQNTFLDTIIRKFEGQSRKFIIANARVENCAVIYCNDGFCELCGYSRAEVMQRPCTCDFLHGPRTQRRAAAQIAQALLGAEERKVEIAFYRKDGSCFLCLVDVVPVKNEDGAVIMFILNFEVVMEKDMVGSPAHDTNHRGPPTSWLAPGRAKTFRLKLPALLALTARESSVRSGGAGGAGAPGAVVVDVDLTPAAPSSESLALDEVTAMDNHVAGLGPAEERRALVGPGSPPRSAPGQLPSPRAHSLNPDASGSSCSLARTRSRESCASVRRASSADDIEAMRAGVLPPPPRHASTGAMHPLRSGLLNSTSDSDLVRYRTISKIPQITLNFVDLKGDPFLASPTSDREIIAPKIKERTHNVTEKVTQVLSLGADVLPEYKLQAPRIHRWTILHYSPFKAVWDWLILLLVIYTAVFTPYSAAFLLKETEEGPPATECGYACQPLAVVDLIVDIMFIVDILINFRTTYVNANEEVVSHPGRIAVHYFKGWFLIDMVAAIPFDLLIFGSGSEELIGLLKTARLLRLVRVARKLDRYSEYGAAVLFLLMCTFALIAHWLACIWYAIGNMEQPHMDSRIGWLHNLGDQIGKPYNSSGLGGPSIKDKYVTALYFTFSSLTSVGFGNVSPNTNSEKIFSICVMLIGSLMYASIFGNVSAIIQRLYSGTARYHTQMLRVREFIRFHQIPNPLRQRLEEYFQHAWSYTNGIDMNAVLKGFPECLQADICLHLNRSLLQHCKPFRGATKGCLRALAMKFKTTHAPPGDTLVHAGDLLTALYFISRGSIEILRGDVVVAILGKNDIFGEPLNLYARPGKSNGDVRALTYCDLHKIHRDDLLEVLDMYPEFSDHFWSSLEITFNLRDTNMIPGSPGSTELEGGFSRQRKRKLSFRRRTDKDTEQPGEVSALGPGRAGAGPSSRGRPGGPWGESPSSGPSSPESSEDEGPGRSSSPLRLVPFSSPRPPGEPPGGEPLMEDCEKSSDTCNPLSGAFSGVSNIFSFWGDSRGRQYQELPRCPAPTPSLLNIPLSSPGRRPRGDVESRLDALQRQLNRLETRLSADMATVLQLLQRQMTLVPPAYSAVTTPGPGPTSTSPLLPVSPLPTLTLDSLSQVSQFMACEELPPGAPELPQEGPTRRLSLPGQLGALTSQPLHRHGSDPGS
row,SMILES,"hERG current change (%, negative = inhibition) at 10uM"
1,COc1ccc(/C=C/C(=O)NCc2cccnc2)cc1,7.38%
2,Cc1nn(Cc2ccccc2Cl)c(C)c1NC(=O)NC12CC3CC(CC(C3)C1)C2,-1.42%
3,Cc1cc(C)n2c(SCC(=O)NCc3ccc4c(c3)OCO4)nnc2n1,14.5%
4,CCN(CC)c1nc2c3c(nc4c(c3c1C#N)CC(=O)N4c1ccc(Cl)cc1)NC(C)=N2,4.82%
5,CN1CCN(S(=O)(=O)c2cccc(C(=O)NCCC3=CCCCC3)c2)CC1,-7.54%
6,COc1ccc(CCC(=O)Nc2cc(S(=O)(=O)N3CCOCC3)ccc2OC(C)C)cc1,-34.8%
7,CC(C)(C)c1ccc(/C=C(\c2nc3ccccc3[nH]2)S(=O)(=O)c2ccccc2)cc1,0.84%
8,CN1CCN(c2nc3c(c(=O)[nH]c(=O)n3C)n2Cc2ccccc2)CC1,-25.4%
9,C(=C\c1nc(N2CCCC2)c2ccccc2n1)/c1ccccc1,-48.9%
10,CCOC(=O)C(O)(CC(=O)Nc1ccc(Cl)cc1Cl)C(F)(F)F (centres unmarked),5.34%
11,Cc1cc(OCC(=O)O)c2ccccc2n1,12.2%
12,CC(=O)SC(C[N+](=O)[O-])c1cn(C(C)=O)c2ccccc12 (centres unmarked),4.89%
13,Cc1ccc(-n2nnnc2SCC(=O)N2CC(=O)Nc3ccccc32)cc1,-2.39%
14,Cc1ccc(C(=O)/C=C/c2cc(Br)cc(Br)c2O)o1,13.7%
15,Cc1ccc(C)c(OCC(=O)Nc2ccccc2N2CCCC2)c1,8.58%
16,CC1(c2nnc(Cc3ccccc3)o2)CC(c2c(Cl)cccc2Cl)=NO1 (centres unmarked),-34.6%
17,Cc1cc(C(=O)NC2CC(C)(C)Cc3c2cnn3-c2ccccc2)n[nH]1 (centres unmarked),-19.2%
18,COc1ccc(CCNC(=O)CNCC2CCCO2)cc1OC.O=C(O)C(=O)O (centres unmarked),14.1%
19,Cc1ccc2c(CSc3nncn3C)cc(=O)oc2c1C,13.4%

row,SMILES,"hERG current change (%, negative = inhibition) at 10uM"
1,COc1ccc(-n2nc3c(c2NC(=O)COc2ccccc2)CS(=O)(=O)C3)cc1,4.95%
2,CC1(C)CC(=O)C(C=NCCN2CCN(C(=O)c3ccccc3)CC2)=C(O)C1,2.78%
3,Cc1ccccc1C(=O)NC(=S)N(C)CCc1ccccn1,4.3%
4,O=C(NCCCN1CCCC1=O)Nc1ccc(Cl)cc1Cl,1.82%
5,COCCCNC(=O)Cn1nc(-c2ccccc2OC)ccc1=O,18%
6,Cc1cc(Cn2nnc3ccccc32)c(O)c(C(C)(C)C)c1,19.3%
7,C#CCOCCOCCOCCNc1nc(N2CCN(C(=O)Cn3cc(CC(C)O)nn3)CC2)nc(N2CCN(C(=O)[C@H](CCCC[NH3+])n3cc(CCC(=O)O)nn3)CC2)n1.[Cl-] (some centres unmarked),4.96%
8,COCCCN(C(=O)c1ccccc1)c1nc(-c2ccc(OC)cc2)cs1,18.3%
9,O=C(Cn1nc(Cl)nc1Cl)c1ccc([N+](=O)[O-])cc1,1.69%
10,O=S(=O)(c1ccc(Cl)cc1)N1CCCN(c2ccc(C(F)(F)F)cn2)CC1,-23.3%
11,CCOc1ccc2[nH]c(=O)c(CN(Cc3ccccc3)C(=O)N3CCCC3)cc2c1,9.28%
12,CN(C)c1ccc(C(=O)Nc2ccc(CN3CCS(=O)(=O)CC3)cc2)cc1,-4.98%
13,CC(=O)Cn1ncc(N2CCOCC2)cc1=O,18.6%
14,Cc1ccc(NC(=S)NNC(=O)CSc2nnc(-c3ccc(Cl)cc3)n2C2CCCCC2)cc1,-2.98%
15,Cc1cc(C(=O)COC(=O)CNC(=O)c2ccc(Cl)c(Cl)c2)c(C)n1Cc1ccco1,20.7%
16,CS(=O)(=O)N1CCN=C1SCc1ccccc1,-0.663%
17,O=C(Nc1nc2ccccc2[nH]1)c1ccccc1F,-7.16%
18,Oc1c(N=NC(=S)Nc2ccccc2F)c2ccccc2n1Cc1cccc(Cl)c1,13.6%
19,COC(=O)C1=C(c2cccc(C#N)c2)C[C@@H]2CC[C@H]1N2C(=O)NCCCOC(C)C,5.51%

row,SMILES,"hERG current change (%, negative = inhibition) at 10uM"
1,Cc1ccc(NC(=O)NCCCCc2ccccc2)cc1,21.8%
2,CC(=O)Oc1ccc(-c2cccc(C(=O)NCC(=O)O)c2)cc1,17.9%
3,COc1ccc(-c2cc(C(=O)N3CCN(c4ccccn4)CC3)c3ccccc3n2)cc1,-5.51%
4,COc1cccc(C(=O)NCCS(=O)(=O)NCc2cccs2)c1,-10.6%
5,COC(=O)c1[nH]c2cc(OC)ccc2c1NC(=O)c1nonc1C,-0.509%
6,CN(CCOc1ccccc1)CC(=O)Nc1cccc(C#N)c1,-8.09%
7,CCC(=O)NC(=S)Nc1ccc(-c2nc3ccc(C)cc3s2)cc1,11.4%
8,COc1ccc(NC(=O)/C(C#N)=C\c2ccc(Br)o2)cc1,4.52%
9,Cc1cnc(NC(=O)CSc2nnc(COc3c(C)cccc3C)o2)s1,11.6%
10,Cc1ccc(OCCCCn2cnc3ccccc32)cc1.Cl,-49%
11,O=C(CN(Cc1ccc(Cl)cc1)C(=O)CNS(=O)(=O)c1ccccc1)NCC1CCCO1 (centres unmarked),-2.18%
12,O=C(O)COc1ccc(/C=N/NC(=O)C2CCCN2S(=O)(=O)c2ccc(Cl)cc2)cc1 (centres unmarked),17.9%
13,CCOC(=O)CNC(=O)COc1ccc(Cl)cc1Br,-19.5%
14,CCOc1ccccc1C(=O)N1CCC(C(=O)c2ccc(F)cc2)CC1,-25.2%
15,COc1ccc(NC(=O)c2ccco2)cc1S(=O)(=O)N1CCOCC1,10.8%
16,CCC(=O)Nc1nnc(Sc2ccc(N(C)C)cc2)s1,-9.98%
17,N#CCC(=O)Nc1ccccc1C(=O)O,-6.59%
18,CCOC(=O)c1sc(NC(=O)C2CC=CCC2C(=O)O)nc1C (centres unmarked),7.39%
